The full ranking holds about 2,900 compounds; the median of “NF-kB SEAP reporter activity, fold change vs agonist alone” is about 0.99, and the highest 2% start at about 2.6. This is one part of the list.

Experiment [1] relates to RAW-Dual. Description: NF-kB SEAP reporter activity, fold change vs agonist alone; higher = enhanced NF-kB activity. The following applies: library stock concentration (final ~1000-fold dilution): 10 mM. An outline of the steps:
(§1)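 Library stock was pin-tooled at 50 nL into 384-well plates of RAW-Dual macrophages (50,000 cells/well, DMEM), followed 1 h later by a PRR agonist, and the cells were kept at 37 °C, 5% CO2. Supernatant collected after 20 hours was read for IRF by QuantiLuc luminescence and for NF-κB by QuantiBlue absorbance at 620 nm. Reporter activity is fold change over agonist-alone wells, and a well counted as cytotoxic when its IncuCyte confluency was below 70% of agonist controls in both mask sets.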

The subject of experiment [2] is RAW-Dual. Description: NF-kB SEAP reporter activity, fold change vs agonist alone; cytotoxicity flag (confluency mask): not cytotoxic; higher = enhanced NF-kB activity. An outline of the steps: as §1
Experiment [3] concerns RAW-Dual. The experiment is described as follows: NF-kB SEAP reporter activity, fold change vs agonist alone; cytotoxicity flag (confluency mask): cytotoxic (confluency <70% of control); higher = enhanced NF-kB activity. The procedure, abridged: as §1
Where [4] appears, read: cytotoxicity flag (confluency mask): not cytotoxic, agonist: Imiquimod (TLR7) […].
Where [5] appears, read: cytotoxicity flag (confluency mask): not cytotoxic, agonist: MPLA (TLR4) […].
Setting [6] is: agonist: ODN 1826 (TLR9) 0.5 ug/mL.
The mark [7] stands for this setting: agonist: Pam2CSK4 (TLR2/6) 0.1 ug/mL.
[8] abbreviates: agonist: Pam3CSK4 (TLR2/1) 0.1 ug/mL.
The mark [9] stands for this setting: cytotoxicity flag (confluency mask): cytotoxic (confluency <70% of control), agonist: Imiquimod (TLR7) […].
[10] abbreviates: cytotoxicity flag (confluency mask): cytotoxic (confluency <70% of control), agonist: MPLA (TLR4) […].

Consider `COC(=O)Nc1nc2ccccc2[nH]1`, for which the “NF-kB SEAP reporter activity” value with RAW-Dual [1] (setting [4]) and with RAW-Dual [1] (setting [5]) was 1.02 each time.

Take `COC(=O)Nc1nc2ccccc2[nH]1` (library stock concentration (final ~1000-fold dilution): 10 mM): the “NF-kB SEAP reporter activity” value was 0.882 in the experiment on RAW-Dual [2] (agonist: LPS (TLR4) 0.1 ug/mL), 0.973 in the experiment on RAW-Dual [2] (setting [6]), 0.88 in the experiment with RAW-Dual [2] (setting [7]) and 1 in the experiment with RAW-Dual [2] (setting [8]).

With `C[N+](C)(C)CCCCCCCCCC[N+](C)(C)C`, the results for the “NF-kB SEAP reporter activity” value in the experiment on RAW-Dual [1] (setting [4]) and with RAW-Dual [1] (setting [5]) were 0.934 and 1.02, respectively.

In the case of `C[N+](C)(C)CCCCCCCCCC[N+](C)(C)C` (library stock concentration (final ~1000-fold dilution): 10 mM), the “NF-kB SEAP reporter activity” value in the experiment with RAW-Dual [2] (agonist: LPS (TLR4) 0.1 ug/mL) turned out to be 1.32; in the experiment with RAW-Dual [2] (setting [6]) it was 0.97; in the experiment with RAW-Dual [2] (setting [7]) it was 1.22; with RAW-Dual [2] (setting [8]) it was 1.13.

Take `O=C(O)CNC(=O)c1c(O)c2ccccc2n(Cc2ccccc2)c1=O` (library stock concentration (final ~1000-fold dilution): 10 mM): the “NF-kB SEAP reporter activity” value in the experiment with RAW-Dual [2] (agonist: LPS (TLR4) 0.1 ug/mL) is 1.37; with RAW-Dual [2] (setting [6]), 1.02; in the experiment on RAW-Dual [2] (setting [7]), 1.19; in the experiment with RAW-Dual [2] (setting [8]), 1.13.

Turning to `O=C(O)CNC(=O)c1c(O)c2ccccc2n(Cc2ccccc2)c1=O`, the “NF-kB SEAP reporter activity” value with RAW-Dual [1] (setting [4]) was found to be 1; in the experiment with RAW-Dual [1] (setting [5]), 1.04.

In the case of `Cl.Cl.Fc1ccc(C(OCCN2CCN(CCCc3ccccc3)CC2)c2ccc(F)cc2)cc1` (library stock concentration (final ~1000-fold dilution): 10 mM), the “NF-kB SEAP reporter activity” value in the experiment with RAW-Dual [3] (agonist: LPS (TLR4) 0.1 ug/mL) was found to be 0.46; in the experiment with RAW-Dual [3] (setting [6]), 0.236; in the experiment on RAW-Dual [3] (setting [7]), 0.361; in the experiment on RAW-Dual [3] (setting [8]), 0.301.

As for `Cl.Cl.Fc1ccc(C(OCCN2CCN(CCCc3ccccc3)CC2)c2ccc(F)cc2)cc1`, the “NF-kB SEAP reporter activity” value with RAW-Dual [1] (setting [9]) worked out at 1.8; in the experiment on RAW-Dual [1] (setting [10]) it was 0.692.

`CCC12C=CCN3CCC4(C(=C(C(=O)OC)C1)Nc1ccccc14)C32` (stereo not drawn): the results for the “NF-kB SEAP reporter activity” value with RAW-Dual [1] (setting [4]) and with RAW-Dual [1] (setting [5]) were 1.19 and 1.94, respectively.

`CCC12C=CCN3CCC4(C(=C(C(=O)OC)C1)Nc1ccccc14)C32` (stereo not drawn) (library stock concentration (final ~1000-fold dilution): 10 mM): the “NF-kB SEAP reporter activity” value with RAW-Dual [2] (agonist: LPS (TLR4) 0.1 ug/mL) was 0.997; in the experiment on RAW-Dual [2] (setting [6]), 0.986; with RAW-Dual [2] (setting [7]), 0.9; in the experiment with RAW-Dual [2] (setting [8]), 1.52.

As to `O=C(CBr)N1CC([N+](=O)[O-])([N+](=O)[O-])C1` (library stock concentration (final ~1000-fold dilution): 10 mM), the “NF-kB SEAP reporter activity” value in the experiment with RAW-Dual [3] (agonist: LPS (TLR4) 0.1 ug/mL) was found to be 0.335; in the experiment on RAW-Dual [3] (setting [6]) it was 0.252; in the experiment on RAW-Dual [3] (setting [7]) it was 0.0912; in the experiment with RAW-Dual [3] (setting [8]), 0.189.

In the case of `O=C(CBr)N1CC([N+](=O)[O-])([N+](=O)[O-])C1`, the “NF-kB SEAP reporter activity” value in the experiment on RAW-Dual [1] (setting [9]) came out at 0.542; in the experiment on RAW-Dual [1] (setting [10]), 0.295.

For `O=C(OC1CC2CCC(C1)[N+]21CCCC1)C(O)(c1ccccc1)c1ccccc1` (stereo not drawn) (library stock concentration (final ~1000-fold dilution): 10 mM), the “NF-kB SEAP reporter activity” value was determined as 1.21 with RAW-Dual [2] (agonist: LPS (TLR4) 0.1 ug/mL), 0.958 in the experiment on RAW-Dual [2] (setting [6]), 0.978 in the experiment with RAW-Dual [2] (setting [7]) and 1.16 in the experiment with RAW-Dual [2] (setting [8]).

As for `O=C(OC1CC2CCC(C1)[N+]21CCCC1)C(O)(c1ccccc1)c1ccccc1` (stereo not drawn), the “NF-kB SEAP reporter activity” value with RAW-Dual [1] (setting [4]) was 1.1; in the experiment on RAW-Dual [1] (setting [5]), 0.947.

For `O=C(O)CC[N+](=O)[O-]`, the “NF-kB SEAP reporter activity” value in the experiment on RAW-Dual [1] (setting [4]) turned out to be 1.04; with RAW-Dual [1] (setting [5]), 0.708.

On to `O=C(O)CC[N+](=O)[O-]` (library stock concentration (final ~1000-fold dilution): 10 mM), for which the “NF-kB SEAP reporter activity” value with RAW-Dual [2] (agonist: LPS (TLR4) 0.1 ug/mL) is 1.3; in the experiment with RAW-Dual [2] (setting [6]), 1.11; with RAW-Dual [2] (setting [7]) it was 1.05; in the experiment on RAW-Dual [2] (setting [8]), 1.09.

As to `CC(C)=CCCC(C)(O)C1CCC2(C)C1C(O)CC1C3(C)CCC(OC4OC(CO)C(O)C(O)C4O)C(C)(C)C3CCC12C` (stereo not drawn) (library stock concentration (final ~1000-fold dilution): 10 mM), the “NF-kB SEAP reporter activity” value with RAW-Dual [2] (agonist: LPS (TLR4) 0.1 ug/mL) was 1.27; in the experiment on RAW-Dual [2] (setting [6]) it was 0.812; in the experiment with RAW-Dual [2] (setting [7]) it was 0.791; in the experiment with RAW-Dual [2] (setting [8]), 0.964.

With `CC(C)=CCCC(C)(O)C1CCC2(C)C1C(O)CC1C3(C)CCC(OC4OC(CO)C(O)C(O)C4O)C(C)(C)C3CCC12C` (stereo not drawn), the “NF-kB SEAP reporter activity” value with RAW-Dual [1] (setting [4]) was 0.783; with RAW-Dual [1] (setting [5]), 0.974.

Consider `COc1cc2c(cc1OC)C(Cc1ccc(O)c(Oc3cc4c(cc3OC)CCN(C)C4Cc3ccc(O)cc3)c1)N(C)CC2.[O-][Cl+3]([O-])([O-])O` (stereo not drawn) (library stock concentration (final ~1000-fold dilution): 10 mM), for which the “NF-kB SEAP reporter activity” value in the experiment on RAW-Dual [2] (agonist: LPS (TLR4) 0.1 ug/mL) came out at 1.1; in the experiment with RAW-Dual [2] (setting [6]) it was 0.159; in the experiment with RAW-Dual [2] (setting [7]), 0.87; with RAW-Dual [2] (setting [8]) it was 1.03.

As for `COc1cc2c(cc1OC)C(Cc1ccc(O)c(Oc3cc4c(cc3OC)CCN(C)C4Cc3ccc(O)cc3)c1)N(C)CC2.[O-][Cl+3]([O-])([O-])O` (stereo not drawn), the “NF-kB SEAP reporter activity” value amounted to 0.975 with RAW-Dual [1] (setting [4]) and 1.3 in the experiment with RAW-Dual [1] (setting [5]).

`Nc1ncnc2c1ccn2C1OC(CO)C(O)C1O` (stereo not drawn): the “NF-kB SEAP reporter activity” value in the experiment on RAW-Dual [1] (setting [9]) is 0.147; with RAW-Dual [1] (setting [10]) it was 0.247.

Turning to `Nc1ncnc2c1ccn2C1OC(CO)C(O)C1O` (stereo not drawn) (library stock concentration (final ~1000-fold dilution): 10 mM), the “NF-kB SEAP reporter activity” value turned out to be 0.531 with RAW-Dual [3] (agonist: LPS (TLR4) 0.1 ug/mL), 0.19 in the experiment on RAW-Dual [3] (setting [6]), 0.0753 in the experiment on RAW-Dual [3] (setting [7]) and 0.156 with RAW-Dual [3] (setting [8]).

Consider `O=C(O)CNC(=O)C1C(=O)N(C2CCCCC2)C(=O)N(C2CCCCC2)C1=O` (library stock concentration (final ~1000-fold dilution): 10 mM), for which the “NF-kB SEAP reporter activity” value was determined as 0.958 in the experiment on RAW-Dual [2] (agonist: LPS (TLR4) 0.1 ug/mL), 0.905 with RAW-Dual [2] (setting [6]), 0.917 with RAW-Dual [2] (setting [7]) and 0.971 in the experiment on RAW-Dual [2] (setting [8]).

For `O=C(O)CNC(=O)C1C(=O)N(C2CCCCC2)C(=O)N(C2CCCCC2)C1=O`, the “NF-kB SEAP reporter activity” value was found to be 0.959 with RAW-Dual [1] (setting [4]) and 0.981 in the experiment on RAW-Dual [1] (setting [5]).

With `Cl.NC1CC1c1ccccc1` (stereo not drawn), the results for the “NF-kB SEAP reporter activity” value in the experiment on RAW-Dual [1] (setting [4]) and with RAW-Dual [1] (setting [5]) were 0.918 and 1.07, respectively.

In the case of `Cl.NC1CC1c1ccccc1` (stereo not drawn) (library stock concentration (final ~1000-fold dilution): 10 mM), the “NF-kB SEAP reporter activity” value with RAW-Dual [2] (agonist: LPS (TLR4) 0.1 ug/mL) was 1.14; in the experiment with RAW-Dual [2] (setting [6]), 1.04; in the experiment on RAW-Dual [2] (setting [7]), 0.996; in the experiment with RAW-Dual [2] (setting [8]) it was 1.03.
